PubChem BioAssay AID493208 (National Center for Advancing Translational Sciences (NCATS), 2011)
The campaign covered roughly 44,000 compounds. About 340 (0.77%) were called active. Roughly 5% stayed inconclusive and do not appear here. Calls follow the shape of the dose curve; as a rule, active = well fitted inhibition curve with a large enough effect; inconclusive = small, poorly fitted or top-dose-only effect; inactive = flat fitted curve, though single readings scatter. The list shows a part of the results.

Test: Acumen qHTS Assay for Inhibitors of the mTORC1 Signaling Pathway in MEF (Tsc2-/-, p53-/-) Cells: Sytravon;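 also: plate controls were DMSO for no effect and rapamycin for full effect; nearly all actives have a fitted effect of over 50% in size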
Conditions: phospho-rpS6 immunofluorescence/PI, 24 h; series mostly up to 38.3 µM; activity change, negative = inhibition: at the top concentration
Method in brief: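 Cell-based qHTS: Tsc2-/- p53-/- MEF, 24 h cpd, 37 °C; fix/perm, anti-phospho-S6 Alexa-488 + PI; Acumen 488 nm scan; pS6/PI ratio, % positive cells; rapamycin 7.5 nM = inhibition ref; PI count = viability.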

Activity change, negative = inhibition, inactive:
COc1cc(-c2cc(OC)c3c(C)oc(C)c3c(=O)c2)ccc1OC(=O)c1cccc(Cl)c1 -3.39%, CCOC(=O)c1c(NC(=O)CSc2cn(CCNC(=O)c3ccccc3F)c3ccccc23)sc2c1CCCC2 -3.66%, O=C(Cn1c(=O)n(-c2ccc(Cl)cc2)c(=O)c2c3c(sc21)CCC3)c1ccccc1 -0.384%, CC(C)(C)OC(=O)N1CCC(c2c(C(=O)N3CCN(C(=O)c4ccco4)CC3)cnn2-c2ccccc2Cl)CC1 3.4%, COCCCNC(=O)c1ccc2c(c1)NC(=O)C(C(C)C)N2 (centres undefined) 9.68%, CCc1ccc(S(=O)(=O)c2nnn3c2nc(NCCNC(C)=O)c2cc(Cl)ccc23)cc1 1.6%, CC(C)(C)NC(=O)c1oc2ccccc2c1NC(=O)c1ccc(F)cc1 2.87%, COc1ccc(CCN2C(=O)CN(C3CCC(C)CC3)C(=O)C2c2ccc(OC(C)C)c(OC)c2)cc1OC (centres undefined) -22.9%, Cc1ccccc1C(=O)c1cccn1CC(=O)NCc1cccc(Cl)c1 -0.518%, CCc1nn(CCCC(=O)NC(C)c2ccccc2)c(=O)c2cc3occc3n12 (centres undefined) 0.232%, Cc1ccc(Cn2cc(CCC(=O)NCc3ccc(OC(C)C)cc3)c3ccccc32)cc1 0%, CCCCNC(=O)C(CC)Sc1nc2ccccc2c(=O)n1CCc1ccc(OC)c(OC)c1 (centres undefined) -7.76%, COCCN(CCOC)c1ncnc2c1c(-c1ccccc1)cn2-c1ccc(C)c(Cl)c1 -5.92%, Cc1ccc(NC(=O)Cn2c(=O)n(Cc3ccc4c(c3)OCO4)c(=O)c3ccc(C(=O)NC4CCCCC4)cc32)c(C)c1 -8.86%, CCc1ccc(NC(=O)Cn2c(-c3cncs3)nc3ccccc32)cc1 -3.47%, CCn1c2ccccc2c2cc(CN3CCN(Cc4ccccc4C)CC3)ccc21 -14.2%, COc1ccc(C)cc1NC(=O)c1ccc2c(c1)nnn2C1CCCC1 3.15%, COc1ccccc1C(=O)Nc1ccc(OCc2cc(=O)n3cc(C)sc3n2)cc1 1.67%, Cc1ccc2[nH]c(=O)c3cc(C(=O)NCCc4ccc(Cl)cc4)sc3c2c1 -4.99%, c1ccc(OCCn2c(COc3ccccc3)nc3ccccc32)cc1 7.96%, O=C1c2oc3ccccc3c(=O)c2C(c2cccc(Cl)c2)N1c1ccccn1 (centres undefined) 6.33%, O=C(Cn1c(=O)c2cccn2c2cccnc21)NCc1ccccc1F 2.74%, CC1=C(C(=O)Nc2ccc(C)cc2C)C(c2ccccc2F)n2nc(SCC(=O)c3ccc(C)cc3)nc2N1 (centres undefined) 0.241%, O=S(=O)(Nc1ccc(-c2ccc(N3CCCC3)nn2)cc1)c1cc(F)ccc1F -1.75%, Cc1cc2nc(-c3ccc(OCc4ccccc4)cc3)cc(C(F)(F)F)n2n1 1.96%, CCc1ccc(NC(=O)c2cnc3sc(N4CCCC4)nn3c2=O)cc1 8.97%, O=C(Nc1ccc(S(=O)(=O)N2CCCCCC2)cc1)c1cc(=O)c2ccccc2o1 -13.2%, Cc1cc(-n2c(C)nc3ccccc3c2=O)ccc1NC(=O)c1ccc([N+](=O)[O-])cc1 0.688%, CC(=O)c1ccc(N2CCN(C(=O)CCS(=O)(=O)c3ccc4c(c3)oc(=O)n4C)CC2)cc1 -1.18%, CCOc1ccc(N2CC(C(=O)NCc3nnnn3-c3ccc(C)c(C)c3)CC2=O)cc1 (centres undefined) 5.3%, CCOc1ccc(NS(=O)(=O)c2ccc3[nH]cc(C(=O)NCC4CCCO4)c(=O)c3c2)cc1 (centres undefined) -9.21%, COC(=O)CN1C(=O)CSc2ccc(S(=O)(=O)Nc3cccc(Cl)c3C)cc21 -1.81%, Nc1c(-c2nc(-c3ccc(F)cc3)cs2)c2ccccn2c1C(=O)c1ccc2c(c1)OCO2 -0.492%, Cc1cc(=O)n(CC(=O)N2CCN(c3ccc(F)cc3)CC2)c2c1c(C)nn2C -0.679%, COc1ccc(NCc2cc3ccc(OC)cc3n(CC(=O)Nc3cc(Cl)ccc3C)c2=O)cc1 -7.09%, CCSc1ncc(Cl)c(C(=O)Nc2sc3c(c2C(=O)NC)CCCC3)n1 1.26%, CC(Oc1ccccc1F)C(=O)Nc1ccc(-c2nc3ccccc3s2)cc1 (centres undefined) -4.69%, CCc1cccc(NC(=O)CN(C)S(=O)(=O)c2cccc3cccnc23)c1 -4.69%, CC1CCc2c(sc(NC(=O)c3cc4nc(-c5ccc(Cl)cc5)cc(C(F)(F)F)n4n3)c2C#N)C1 (centres undefined) -0.128%, COc1ccc(S(=O)(=O)c2cnc(SCC(=O)Nc3cc(F)ccc3C)[nH]c2=O)cc1Cl -1.82%, CCC1CCCCN1C(=O)c1sc(-n2nc(C)c(Cc3ccccc3)c2C)nc1C (centres undefined) -3.41%, Cc1ccc(Cl)cc1NC(=O)CN1C(=O)C(C)(C)c2cc(S(=O)(=O)N3CCCCC3)ccc21 -13.1%, CC(C)CCN(C(=O)Nc1ccc(Cl)c(Cl)c1)C(C)c1cccs1 (centres undefined) 0%, COc1cccc(OC(=O)CSc2nnc(-c3ccc4c(c3)OCO4)o2)c1 -0.09%, Cc1cccc(-c2nc3c4ccccc4nc(NCc4ccc(F)cc4)n3n2)c1 -2.06%, CCOC(=O)c1c(S(=O)(=O)NCC(=O)NCc2ccccc2)c(C)n(C)c1C 2.05%, CCc1ccc2c(c1)NC(c1ccc(OC)cc1)=NC(c1ccncc1)=N2 1.64%, CCOC(=O)c1ccc(OC(=O)c2cn(-c3cccc(OC)c3)c(=O)c3ccccc23)cc1 -4.08%, COc1cc(/C=C/c2nc(C#N)c(N3CCC(C)CC3)o2)cc(OC)c1OC -2.7%, CCOc1ccccc1NC(=O)C(C)N(c1ccccc1)S(C)(=O)=O (centres undefined) 2.99%, Cc1ccc2c(c1)N(CCCC(=O)NCc1cccc(F)c1)C(=O)CO2 -9.35%, CSc1ncc(C(=O)N2CCN(c3cccc(C(F)(F)F)c3)CC2)c(C)n1 0.558%, COc1ccccc1OCC(=O)Nc1c(C(=O)c2ccc(F)cc2)oc2ccccc12 4.34%, Cc1ccc(NC(=O)C2CCN(S(=O)(=O)c3cc(-c4noc(C)n4)ccc3C)CC2)c(C)c1 -10.4%, CCCN(CCC)CCCNC(=O)c1cc2c(=O)[nH]c3ccccc3c2n1C 0.773%, COc1cccc(-n2c(=O)c3sc4ccccc4c3n(CC(=O)Nc3ccccc3C)c2=O)c1 1.47%, COc1ccc(C2CC(=O)c3cc(-c4nc(-c5cccc([N+](=O)[O-])c5)cs4)c(=O)n(-c4ccc(OC)cc4)c3C2)cc1 (centres undefined) -8.35%, COc1ccc(C2N3CC4(C)CN2CC(c2ccccc2)(C3)C4=O)cc1OC (centres undefined) -3.59%, O=C(CSc1c2c(nc3cc(Cl)ccc13)CCCC2)NCc1ccccc1Cl -26.5%
